Test results published in the supplement of paper PMC7125110.
± gives the standard error. Variants at the background level are over-represented here.

B1: glmS ribozyme (parent)
chain: AUAAAAGCGCCAGAACUACAGAAAUGUAGUUGACGAGGAGGAGGUUUAUCGAAUUUUCGGCGGAUGCCUCCAAA

Tests used:
Conditions in all cases: with glucosamine-6-phosphate
glucosamine-6-phosphate [1] = variants of: B1; test: self-cleavage kobs at 40 uM GlcN6P; higher = faster cleavage; RNA array
In short: (§1)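 On sequenced MiSeq chips, barcoded ribozyme variants were made in situ by E. coli RNA polymerase and followed at 37 °C through a hybridised Cy3 probe. Glucosamine-6-phosphate was flowed in at 40 μM to 10 mM in HEPES/KCl/Mg(OAc)2 buffer. Exponential fits to normalised per-tile medians gave kobs, and weighted Michaelis–Menten fits gave kcat and KM.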

glucosamine-6-phosphate [2] = variants of: B1; test: self-cleavage kobs at 640 uM GlcN6P; higher = faster cleavage; RNA array
In short: as §1

glucosamine-6-phosphate [3] = variants of: B1; test: self-cleavage kobs at 2500 uM GlcN6P; higher = faster cleavage; RNA array
In short: as §1

glucosamine-6-phosphate [4] = variants of: B1; test: self-cleavage kobs at 10000 uM GlcN6P; higher = faster cleavage; RNA array
In short: as §1

glucosamine-6-phosphate [5] = variants of: B1; test: self-cleavage kobs at 160 uM GlcN6P; higher = faster cleavage; RNA array
In short: as §1

| Variant | self-cleavage kobs at 40 uM GlcN6P (glucosamine-6-phosphate [1]) [s⁻¹] | self-cleavage kobs at 640 uM GlcN6P (glucosamine-6-phosphate [2]) [s⁻¹] | self-cleavage kobs at 2500 uM GlcN6P (glucosamine-6-phosphate [3]) [s⁻¹] | self-cleavage kobs at 10000 uM GlcN6P (glucosamine-6-phosphate [4]) [s⁻¹] | self-cleavage kobs at 160 uM GlcN6P (glucosamine-6-phosphate [5]) [s⁻¹] |
| --- | --- | --- | --- | --- | --- |
| A39U U54G U56C C68G | < 1e-05 | – | – | – | – |
| A39U C50G C68A | < 1e-05 | – | – | – | – |
| A39U G43U C61U | < 1e-05 | < 1e-05 | < 1e-05 | < 1e-05 | – |
| G38C G43C C50U G60C C67U | < 1e-05 | – | – | < 1e-05 | – |
| A39U G44U C61A | < 1e-05 | – | – | < 1e-05 | – |
| A39C G40C U47C | < 1e-05 | – | – | – | – |
| G41A G43U | < 1e-05 | < 1e-05 | – | < 1e-05 | < 1e-05 |
| G41A G43C | < 1e-05 | < 1e-05 | < 1e-05 | < 1e-05 | < 1e-05 |
| G38C G41C C71U | < 1e-05 | – | – | < 1e-05 | – |
| G38U A52C C61A | < 1e-05 | – | – | – | – |
| G38U G62U G63A | < 1e-05 | – | < 1e-05 | – | – |
| G40U A64U | < 1e-05 | – | – | – | < 1e-05 |
| A39U C58A G59U C71U | < 1e-05 | – | – | – | – |
| G40A C50U U54C C68U | < 1e-05 | – | – | < 1e-05 | < 1e-05 |
| A39U C61G | < 1e-05 | < 1e-05 | < 1e-05 | < 1e-05 | < 1e-05 |
| G38U U45G C58A | < 1e-05 | – | – | < 1e-05 | < 1e-05 |
| G38U G62U | < 1e-05 | < 1e-05 | – | < 1e-05 | < 1e-05 |
| A39C A52C | < 1e-05 | – | < 1e-05 | – | – |
| A39G G66U | 0.000107 ± 1.9e-05 | 0.00133 ± 0.00029 | 0.00285 ± 0.0009 | 0.00451 ± 0.00097 | – |
| G40A G43C G66A | < 1e-05 | < 1e-05 | – | – | – |
| G40C G44A G66U | < 1e-05 | < 1e-05 | – | < 1e-05 | – |
| G40U C58A | < 1e-05 | – | – | 3.81e-05 ± 9.5e-06 | < 1e-05 |
| G40A U57G | < 1e-05 | < 1e-05 | < 1e-05 | – | – |
| G40C G41A C70U | 8.35e-05 ± 2.8e-05 | – | 0.000861 ± 0.00023 | – | – |
| G40C A53G G63A | < 1e-05 | – | – | < 1e-05 | – |
